Test results published in the BET-seq Pho4 binding data (Le et al. 2018).
The other results are listed elsewhere or left out. These are noisy estimates, calculated here from bound and input reads.

Target: T1, Pho4 (S. cerevisiae) (UniProt P07270)
T1 sequence: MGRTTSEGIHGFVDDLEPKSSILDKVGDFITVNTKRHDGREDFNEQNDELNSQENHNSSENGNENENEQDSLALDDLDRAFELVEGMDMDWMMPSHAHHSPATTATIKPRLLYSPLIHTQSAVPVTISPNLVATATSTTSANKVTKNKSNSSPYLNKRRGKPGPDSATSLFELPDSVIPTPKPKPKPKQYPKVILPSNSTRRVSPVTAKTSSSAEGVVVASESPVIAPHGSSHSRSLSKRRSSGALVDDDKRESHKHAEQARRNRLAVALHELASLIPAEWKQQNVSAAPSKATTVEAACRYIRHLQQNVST
Assay: relative binding free energy (BET-seq); higher = weaker binding
Settings: reference: library average

Sequence	relative binding free energy
TTGGCCACGTGTGTTG	-0.08 kcal/mol
ACGTGCACGTGCGGTT	0.04 kcal/mol
GATTACACGTGCGGGG	0.09 kcal/mol
GCTTACACGTGATGTG	0.29 kcal/mol
ATGGTCACGTGTGTGG	0.05 kcal/mol
TTGTGCACGTGGGGAA	-0.07 kcal/mol
CGCGGCACGTGATGTA	0.09 kcal/mol
TGTGCCACGTGGATGT	-0.06 kcal/mol
TATCGCACGTGGGCTG	-0.21 kcal/mol
AGGTGCACGTGCATTG	0.02 kcal/mol
TTCATCACGTGCTGTT	0.17 kcal/mol
TATTTCACGTGACGTG	0.32 kcal/mol
AAGGGCACGTGAGTCG	-0.08 kcal/mol
ATGGGCACGTGCTAGG	-0.33 kcal/mol
TCTAACACGTGAGTGT	0.15 kcal/mol
GCCGGCACGTGGTTAG	-0.1 kcal/mol
TTTCTCACGTGTGGGC	0.36 kcal/mol
TTAGTCACGTGGTTTA	0.04 kcal/mol
GGGGGCACGTGTTGCT	0 kcal/mol
TGGAGCACGTGACGGA	0.02 kcal/mol
GTTATCACGTGGGCGC	0.12 kcal/mol
GGCGGCACGTGGGTAT	-0.11 kcal/mol
GAAGTCACGTGTGAAT	0.28 kcal/mol

Sequence	relative binding free energy
TGTTTCACGTGGTCCA	0.17 kcal/mol
AGTACCACGTGTGTGG	-0.1 kcal/mol
CGTGACACGTGATTTT	0.06 kcal/mol
AGCGACACGTGTTTGT	0.05 kcal/mol
TATATCACGTGCTTAG	0.04 kcal/mol
TCAGGCACGTGTGTGA	-0.12 kcal/mol
TGTGGCACGTGAATGC	0.1 kcal/mol
TCAGCCACGTGTGGGG	0.02 kcal/mol
TGTTACACGTGGCGCT	0.13 kcal/mol
GTAGCCACGTGGTGTT	-0.22 kcal/mol
CGGCGCACGTGAAGGG	0.1 kcal/mol
GTAGACACGTGTGCGG	0.02 kcal/mol
GTGAGCACGTGTTCGT	-0.02 kcal/mol
TGTGACACGTGCTTTA	-0.1 kcal/mol
AGAGTCACGTGATGGT	0.19 kcal/mol
TTGGACACGTGAAATT	0.41 kcal/mol
CGGTACACGTGTGAGG	0.21 kcal/mol
TCTTTCACGTGGAGTG	0.27 kcal/mol
AATTTCACGTGAGTCT	0.37 kcal/mol
GCGGACACGTGGGGGC	-0.17 kcal/mol
AAATGCACGTGGTTAA	-0.03 kcal/mol
ATCTGCACGTGTGGGC	-0.03 kcal/mol
CTTGGCACGTGGGAAG	-0.15 kcal/mol

Sequence	relative binding free energy
TGTTTCACGTGATTAC	0.3 kcal/mol
ATAGGCACGTGTTGGA	-0.16 kcal/mol
TTCAGCACGTGAGGTA	0.24 kcal/mol
ATTCGCACGTGAGAGG	0.2 kcal/mol
CGTTTCACGTGTGCAG	0.23 kcal/mol
GAGGACACGTGTAGTT	0.22 kcal/mol
TATATCACGTGGCTGT	0.12 kcal/mol
TAGGGCACGTGTGTCA	-0.09 kcal/mol
AGCGGCACGTGGGAGG	-0.14 kcal/mol
CGGTACACGTGTGTTA	0.08 kcal/mol
AAGGTCACGTGTTGCA	0.11 kcal/mol
GTCTGCACGTGCTGGG	0.16 kcal/mol
TAGTACACGTGTTGTG	0.01 kcal/mol
TTAGGCACGTGGGTAC	-0.38 kcal/mol
GATAACACGTGGGGGC	0.02 kcal/mol
CGTAGCACGTGGTTGT	-0.1 kcal/mol
GAAGGCACGTGGAATG	0.07 kcal/mol
TTATACACGTGCGAGG	0.03 kcal/mol
CTGTGCACGTGATTGG	0.22 kcal/mol
ATACGCACGTGTTGGT	-0.17 kcal/mol
GTTTTCACGTGTTTAA	0.33 kcal/mol
CATAGCACGTGGGGCG	-0.23 kcal/mol
AGGTCCACGTGGGTAG	-0.07 kcal/mol

Sequence	relative binding free energy
TCGGGCACGTGTAGTA	0.01 kcal/mol
CAGTGCACGTGGCGGG	-0.09 kcal/mol
GTATACACGTGGTTGA	-0.03 kcal/mol
GATCGCACGTGCAGGT	0.19 kcal/mol
TTAATCACGTGGAGGC	0.07 kcal/mol
TATAGCACGTGTTTTG	-0.08 kcal/mol
CGTGACACGTGTGCGG	-0.04 kcal/mol
ATGGTCACGTGAGTGG	0.36 kcal/mol
GGCGGCACGTGGCCTG	-0.17 kcal/mol
TTTTACACGTGTAAAA	0.16 kcal/mol
ATGGGCACGTGACTTT	-0.04 kcal/mol
GGGTACACGTGTGCGA	0.02 kcal/mol
AACGTCACGTGGCGGG	0.15 kcal/mol
CTTGGCACGTGCATTG	-0.1 kcal/mol
TAATGCACGTGTCGTT	0.02 kcal/mol
GAGCGCACGTGAGTTT	0.24 kcal/mol
AGATGCACGTGAGTGA	0.02 kcal/mol
TTATGCACGTGGCTGA	-0.09 kcal/mol
GGAGACACGTGGGTCG	-0.11 kcal/mol
ATGGCCACGTGGGACG	-0.09 kcal/mol
CGTGCCACGTGTTAGT	-0.03 kcal/mol
GGTGCCACGTGGGGTT	-0.22 kcal/mol
AGGAACACGTGGTTTA	0.1 kcal/mol

Sequence	relative binding free energy
GGGAGCACGTGAAGGA	-0.04 kcal/mol
TGTGCCACGTGTGGTC	-0.03 kcal/mol
TGTTGCACGTGGCTGT	-0.05 kcal/mol
AAGTACACGTGGTAGG	-0.07 kcal/mol
TATAACACGTGGTGAA	-0.05 kcal/mol
GGATGCACGTGGGGGG	-0.05 kcal/mol
GTTCACACGTGCGGTT	0.22 kcal/mol
TGTTGCACGTGTGTGG	0.02 kcal/mol
CGTATCACGTGAAGGT	0.22 kcal/mol
TGATGCACGTGTTCAA	0.06 kcal/mol
CTGTTCACGTGGATGG	0.24 kcal/mol
TAGGTCACGTGTTAAT	0.12 kcal/mol
GAAATCACGTGAGGGT	0.35 kcal/mol
GACGTCACGTGGTTGG	0.16 kcal/mol
TCAAACACGTGTGTGG	0.05 kcal/mol
AGTGGCACGTGGGCTG	-0.18 kcal/mol
TGTAACACGTGGTTGA	-0.06 kcal/mol
GGACGCACGTGGGGGC	-0.17 kcal/mol
AATTGCACGTGTGGCG	0.09 kcal/mol
GTACTCACGTGTGTTG	0.15 kcal/mol
GAAATCACGTGGTATA	0.29 kcal/mol
TTTTCCACGTGTGTCA	0.27 kcal/mol
TTTTACACGTGTATGG	0.15 kcal/mol
